Test results reported in a collection of fitness landscapes (doi:10.1016/j.celrep.2020.107928).
The full ranking holds about 81,000 sequences; the median of “one-hybrid fitness for binding NBS DNA” is about -0.1, and the highest 2% start at about 0.36. The list shows a part of the results.

B1: Caulobacter ParB omega fusion; a variant is named by its letters at X, in order, B8GW30 (parent)
chain: MESVVVGEPGMSEGRRGLGRGLSALLGEVDAAPAQAPGEQLGGSREAPIEILQRNPDQPRRTFREEDLEDLSNSIREKGVLQPILVRPSPDTAGEYQIVAGERAWRAAQRAGLKTVPIMVRELDDLAVLEIGIIENVQRADLNVLEEALSYKVLMEKFERTQENIAQTIGKSXSHVANXMRLLXLPDEVQSYLVSGELTAXHARAIAAAADPVALAKQIIEGGLSVRETEALARKAPNLSAGKSKGGRPPRVKDTDTQALESDLSSVLGLDVSIDHRGSTGTLTITYATLEQLDDLCNRLTRGI

Variants of: B1
Test: one-hybrid fitness for binding NBS DNA (the Noc-binding site; scaled: cognate 1, non-cognate 0); higher = stronger binding
Conditions: with NBS DNA site
In short: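 Fitness is the rescaled log change in variant-to-wild-type read ratio, measured by Illumina sequencing of plasmids before and after bacterial one-hybrid selection. The scale puts cognate at 1 and non-cognate at 0. Selection of Caulobacter ParB libraries, four specificity codons randomised, took place in E. coli USO with a HIS3 reporter, site 19 bp from the promoter, over 48 hours at 37°C on M9-minus-histidine with 0.1 mM IPTG and 5 mM 3-AT.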

Variant | one-hybrid fitness for binding NBS DNA
SGHW | ≤ 0.2
SYRK | ≤ 0.2
VTSL | ≤ 0.2
VHYT | ≤ 0.2
TVAA | ≤ 0.2
GCHN | ≤ 0.2
GECA | ≤ 0.2
NECT | ≤ 0.2
PIYM | ≤ 0.2
MQIF | ≤ 0.2
MSYH | ≤ 0.2
ELKV | ≤ 0.2
QSFF | ≤ 0.2
LKSD | ≤ 0.2
WRTL | ≤ 0.2
PTTC | ≤ 0.2
QSSK | ≤ 0.2
HEAN | ≤ 0.2
TVNY | ≤ 0.2
MNDT | ≤ 0.2
RVPS | ≤ 0.2
VHLL | ≤ 0.2
DMKE | ≤ 0.2
GVCA | ≤ 0.2

Variant | one-hybrid fitness for binding NBS DNA
NAEP | ≤ 0.2
MIHG | ≤ 0.2
NHST | ≤ 0.2
SSNC | ≤ 0.2
TFWT | ≤ 0.2
DEHG | ≤ 0.2
LAGT | ≤ 0.2
SVGP | ≤ 0.2
PLDI | ≤ 0.2
PFHN | ≤ 0.2
ATGL | ≤ 0.2
QNKH | ≤ 0.2
HLCM | ≤ 0.2
RQHN | ≤ 0.2
RVSR | 0.439
IWQR | ≤ 0.2
RVSE | ≤ 0.2
ASGG | ≤ 0.2
WPTF | ≤ 0.2
IRPG | ≤ 0.2
GPVR | ≤ 0.2
NCQG | ≤ 0.2
PWCF | ≤ 0.2
TMML | ≤ 0.2

Variant | one-hybrid fitness for binding NBS DNA
LTYA | ≤ 0.2
ADTR | ≤ 0.2
SPVE | ≤ 0.2
NWNA | ≤ 0.2
VEAH | ≤ 0.2
KNVC | ≤ 0.2
SPGW | ≤ 0.2
RHNF | ≤ 0.2
TVGR | ≤ 0.2
HPNK | ≤ 0.2
IKSS | ≤ 0.2
KPWG | ≤ 0.2
HRIL | ≤ 0.2
LFPL | ≤ 0.2
AGFT | ≤ 0.2
YGKR | ≤ 0.2
FLGR | ≤ 0.2
LRVI | ≤ 0.2
PYRA | ≤ 0.2
LMAA | ≤ 0.2
GETW | ≤ 0.2
RSLS | 0.303
PRQL | ≤ 0.2
KIIG | ≤ 0.2

Variant | one-hybrid fitness for binding NBS DNA
FAPL | ≤ 0.2
ANMG | ≤ 0.2
LVRL | ≤ 0.2
GRHS | ≤ 0.2
FQAL | ≤ 0.2
TQQM | ≤ 0.2
VNYL | ≤ 0.2
WHPD | ≤ 0.2
EEDR | ≤ 0.2
QRLH | 0.453
YRVR | ≤ 0.2
RGLD | ≤ 0.2
TSQL | ≤ 0.2
SNEF | ≤ 0.2
CNVC | ≤ 0.2
CTIF | ≤ 0.2
LLSG | ≤ 0.2
AIAV | ≤ 0.2
CEMR | ≤ 0.2
NEFY | ≤ 0.2
KANV | ≤ 0.2
MFRY | ≤ 0.2
TFYV | ≤ 0.2
RVKL | ≤ 0.2

Variant | one-hybrid fitness for binding NBS DNA
AWQR | ≤ 0.2
FVQV | ≤ 0.2
NHCR | ≤ 0.2
GHLY | ≤ 0.2
AQKW | ≤ 0.2
QYSW | ≤ 0.2
RIIW | ≤ 0.2
RHDN | ≤ 0.2
PLSK | ≤ 0.2
MPVC | ≤ 0.2
RCTI | ≤ 0.2
LAQK | ≤ 0.2
VPPY | ≤ 0.2
WVQL | ≤ 0.2
DGPL | ≤ 0.2
PLLY | ≤ 0.2
CRYL | ≤ 0.2
NRQL | ≤ 0.2
KMRV | ≤ 0.2
VAAI | ≤ 0.2
NVRA | ≤ 0.2
TSYR | ≤ 0.2
RDGK | ≤ 0.2
TEQY | ≤ 0.2

Variant | one-hybrid fitness for binding NBS DNA
MEAY | ≤ 0.2
TTMQ | ≤ 0.2
RAWF | ≤ 0.2
RRLS | 0.606
WMRR | ≤ 0.2
DPNT | ≤ 0.2
INNL | ≤ 0.2
WDKG | ≤ 0.2
NFKT | ≤ 0.2
CVPF | ≤ 0.2
VSLI | ≤ 0.2
LQWY | ≤ 0.2
TLGV | ≤ 0.2
IPHS | ≤ 0.2
TTKC | ≤ 0.2
FTQS | ≤ 0.2
IAMC | ≤ 0.2
NTFC | ≤ 0.2
RTWP | ≤ 0.2
RMHG | ≤ 0.2
DIRS | ≤ 0.2
YAGC | ≤ 0.2
KYPC | ≤ 0.2
SLLT | ≤ 0.2

Variant | one-hybrid fitness for binding NBS DNA
GVMC | ≤ 0.2
RYRR | 0.726
ADRG | ≤ 0.2
EECG | ≤ 0.2
SPYV | ≤ 0.2
QERI | ≤ 0.2
QTED | ≤ 0.2
QRHG | 0.403
RVGE | ≤ 0.2
RWKL | ≤ 0.2
CQRS | ≤ 0.2
FRPT | ≤ 0.2
QSCN | ≤ 0.2
RMDT | 0.226
QKLM | ≤ 0.2
ETLL | ≤ 0.2
RWSR | ≤ 0.2
HNTG | ≤ 0.2
WDSS | ≤ 0.2
DVHV | ≤ 0.2
WDTG | ≤ 0.2
CTFF | ≤ 0.2
SVPD | ≤ 0.2
DSQT | ≤ 0.2

Variant | one-hybrid fitness for binding NBS DNA
CEYR | ≤ 0.2
RNMA | ≤ 0.2
DLYF | ≤ 0.2
KHTS | ≤ 0.2
PPYV | ≤ 0.2
LWPI | ≤ 0.2
VNFG | ≤ 0.2
WVKR | ≤ 0.2
HNML | ≤ 0.2
PRKP | ≤ 0.2
HKNR | ≤ 0.2
PVFL | ≤ 0.2
FNHS | ≤ 0.2
EHAS | ≤ 0.2
RIGV | ≤ 0.2
FRPF | ≤ 0.2
RRIY | 0.337
LICE | ≤ 0.2
NCQS | ≤ 0.2
TNEW | ≤ 0.2
GMNG | ≤ 0.2
YMLC | ≤ 0.2
GCMT | ≤ 0.2
TTCV | ≤ 0.2

Variant | one-hybrid fitness for binding NBS DNA
RACC | ≤ 0.2
NTWS | ≤ 0.2
SAEF | ≤ 0.2
GGLR | ≤ 0.2
AMTY | ≤ 0.2
KEEV | ≤ 0.2
RFPT | ≤ 0.2
KMKK | ≤ 0.2
TCFD | ≤ 0.2
FNAC | ≤ 0.2
ARDS | ≤ 0.2
DHPV | ≤ 0.2
LNSG | ≤ 0.2
CQWG | ≤ 0.2
SEHC | ≤ 0.2
TKHF | ≤ 0.2
PSPH | ≤ 0.2
CYYR | ≤ 0.2
AFAK | ≤ 0.2
HWVL | ≤ 0.2
NPSG | ≤ 0.2
LAAM | ≤ 0.2
PGNH | ≤ 0.2
CGPS | ≤ 0.2

Variant | one-hybrid fitness for binding NBS DNA
ERSV | ≤ 0.2
DHDS | ≤ 0.2
WQRM | ≤ 0.2
QLSF | ≤ 0.2
VLYR | ≤ 0.2
SYYG | ≤ 0.2
FIPE | ≤ 0.2
AKLV | ≤ 0.2
RDQK | ≤ 0.2
KSFM | ≤ 0.2
SEGF | ≤ 0.2
LGYG | ≤ 0.2
QNYN | ≤ 0.2
HNMR | 0.236
QAPG | ≤ 0.2
PFRG | ≤ 0.2
HYYY | ≤ 0.2
HKHH | ≤ 0.2
WEQI | ≤ 0.2
TRWL | ≤ 0.2
SDVE | ≤ 0.2
DVCR | ≤ 0.2
RHMD | ≤ 0.2
TWTD | ≤ 0.2

Variant | one-hybrid fitness for binding NBS DNA
HLNK | ≤ 0.2
MHHP | ≤ 0.2
RCHP | ≤ 0.2
PLRS | ≤ 0.2
LKMG | ≤ 0.2
TVPT | ≤ 0.2
VWEC | ≤ 0.2
HGTM | ≤ 0.2
THIC | ≤ 0.2
DNVM | ≤ 0.2
GRPD | ≤ 0.2
NVAY | ≤ 0.2
YRKV | ≤ 0.2
PVRV | ≤ 0.2
RMHI | ≤ 0.2
FPMS | ≤ 0.2
RWHT | ≤ 0.2
EAFF | ≤ 0.2
RHHP | ≤ 0.2
WSSM | ≤ 0.2
AWIP | ≤ 0.2
YMNC | ≤ 0.2
CWSS | ≤ 0.2
LVYV | ≤ 0.2

Variant | one-hybrid fitness for binding NBS DNA
DSMR | ≤ 0.2
ISHC | ≤ 0.2
SAET | ≤ 0.2
RFMF | ≤ 0.2
RLEF | ≤ 0.2
VVLT | ≤ 0.2
VNKH | ≤ 0.2
GANR | ≤ 0.2
YFDV | ≤ 0.2
AYNP | ≤ 0.2
HGFD | ≤ 0.2
QMKL | 0.262
YFDT | ≤ 0.2
DRTY | ≤ 0.2
ELQS | ≤ 0.2
EWPT | ≤ 0.2
WYNG | ≤ 0.2
EAPD | ≤ 0.2
WQIG | ≤ 0.2
DQQG | ≤ 0.2
LPEC | ≤ 0.2
LLFC | ≤ 0.2
TYLR | ≤ 0.2
PTQT | ≤ 0.2

Variant | one-hybrid fitness for binding NBS DNA
YIDF | ≤ 0.2
NTMH | ≤ 0.2
RDGI | ≤ 0.2
KHAY | ≤ 0.2
MAQS | ≤ 0.2
SPFR | ≤ 0.2
QSHS | 0.381
HDVA | ≤ 0.2
AQRF | ≤ 0.2
HQQS | ≤ 0.2
ISPI | ≤ 0.2
NHYS | ≤ 0.2
SMDG | ≤ 0.2
LIMR | ≤ 0.2
QYFS | ≤ 0.2
FFKS | ≤ 0.2
QNVS | ≤ 0.2
ETLP | ≤ 0.2
